We go through 31 molecules from PMC9911399, “Two distinct binding modes provide the RNA-binding protein RbFox with extraordinary sequence specificity”.

Changes are numbered by the printed parent chain; changes in the protein carry UniProt numbers. Some of the results follow.

Sequences and labels used below:
B1: UAAGCCC (DNA:RNA)
RNA: GGGAGACCGGAAUUCAGAUUGUCCUAAGCCCUUAAAUCCCGUCGUAGCCACCA
DNA 1: CAATCTGAATTCCGGTCTCCC
DNA 2: TGGTGGCTACGACGGGATT
B2: UCCAGAA (DNA:RNA)
RNA: B1 RNA with A26C, A27C, G28A, C29G, C30A, C31A
DNA 1: CAATCTGAATTCCGGTCTCCC
DNA 2: TGGTGGCTACGACGGGATT
B3: CUCCUCU (DNA:RNA)
RNA: B1 RNA with U25C, A26U, A27C, G28C, C29U, C31U
DNA 1: CAATCTGAATTCCGGTCTCCC
DNA 2: TGGTGGCTACGACGGGATT
B4: AUGAUCA (DNA:RNA)
RNA: B1 RNA with U25A, A26U, A27G, G28A, C29U, C31A
DNA 1: CAATCTGAATTCCGGTCTCCC
DNA 2: TGGTGGCTACGACGGGATT
B5: CUUAUUG (DNA:RNA)
RNA: GGGAGACCGGAAUUCAGAUUGUCCCUUAUUGUUAAAUCCCGUCGUAGCCACCA
DNA 1: CAATCTGAATTCCGGTCTCCC
DNA 2: TGGTGGCTACGACGGGATT
B6: UUUGCGU (DNA:RNA)
RNA: B1 RNA with A26U, A27U, C30G, C31U
DNA 1: CAATCTGAATTCCGGTCTCCC
DNA 2: TGGTGGCTACGACGGGATT
B7: UCCACCC (DNA:RNA)
RNA: B1 RNA with A26C, A27C, G28A
DNA 1: CAATCTGAATTCCGGTCTCCC
DNA 2: TGGTGGCTACGACGGGATT
B8: CGUAACA (DNA:RNA)
RNA: B5 RNA with U26G, U29A, U30C, G31A
DNA 1: CAATCTGAATTCCGGTCTCCC
DNA 2: TGGTGGCTACGACGGGATT
B9: GAGUGUU (DNA:RNA)
RNA: B5 RNA with C25G, U26A, U27G, A28U, U29G, G31U
DNA 1: CAATCTGAATTCCGGTCTCCC
DNA 2: TGGTGGCTACGACGGGATT
B10: UUAUUAU (DNA:RNA)
RNA: B5 RNA with C25U, U27A, A28U, U30A, G31U
DNA 1: CAATCTGAATTCCGGTCTCCC
DNA 2: TGGTGGCTACGACGGGATT
B11: AGAGUGA (DNA:RNA)
RNA: B1 RNA with U25A, A26G, C29U, C30G, C31A
DNA 1: CAATCTGAATTCCGGTCTCCC
DNA 2: TGGTGGCTACGACGGGATT
B12: GACGGCA (DNA:RNA)
RNA: B1 RNA with U25G, A27C, C29G, C31A
DNA 1: CAATCTGAATTCCGGTCTCCC
DNA 2: TGGTGGCTACGACGGGATT
B13: ACAGCCA (DNA:RNA)
RNA: B1 RNA with U25A, A26C, C31A
DNA 1: CAATCTGAATTCCGGTCTCCC
DNA 2: TGGTGGCTACGACGGGATT
B14: GGCCAUC (DNA:RNA)
RNA: B5 RNA with C25G, U26G, U27C, A28C, U29A, G31C
DNA 1: CAATCTGAATTCCGGTCTCCC
DNA 2: TGGTGGCTACGACGGGATT
B15: CUUCCUA (DNA:RNA)
RNA: B5 RNA with A28C, U29C, G31A
DNA 1: CAATCTGAATTCCGGTCTCCC
DNA 2: TGGTGGCTACGACGGGATT
B16: UGGGAUU (DNA:RNA)
RNA: B1 RNA with A26G, A27G, C29A, C30U, C31U
DNA 1: CAATCTGAATTCCGGTCTCCC
DNA 2: TGGTGGCTACGACGGGATT
B17: GGUUAAG (DNA:RNA)
RNA: B5 RNA with C25G, U26G, A28U, U29A, U30A
DNA 1: CAATCTGAATTCCGGTCTCCC
DNA 2: TGGTGGCTACGACGGGATT
B18: AAAAACG (DNA:RNA)
RNA: B1 RNA with U25A, G28A, C29A, C31G
DNA 1: CAATCTGAATTCCGGTCTCCC
DNA 2: TGGTGGCTACGACGGGATT
B19: GCUAAUC (DNA:RNA)
RNA: B5 RNA with C25G, U26C, U29A, G31C
DNA 1: CAATCTGAATTCCGGTCTCCC
DNA 2: TGGTGGCTACGACGGGATT
B20: AUUCUGU (DNA:RNA)
RNA: B5 RNA with C25A, A28C, U30G, G31U
DNA 1: CAATCTGAATTCCGGTCTCCC
DNA 2: TGGTGGCTACGACGGGATT
B21: ACCAUUC (DNA:RNA)
RNA: B5 RNA with C25A, U26C, U27C, G31C
DNA 1: CAATCTGAATTCCGGTCTCCC
DNA 2: TGGTGGCTACGACGGGATT
B22: AUACAGC (DNA:RNA)
RNA: B1 RNA with U25A, A26U, G28C, C29A, C30G
DNA 1: CAATCTGAATTCCGGTCTCCC
DNA 2: TGGTGGCTACGACGGGATT
B23: UUUAAUA (DNA:RNA)
RNA: B5 RNA with C25U, U29A, G31A
DNA 1: CAATCTGAATTCCGGTCTCCC
DNA 2: TGGTGGCTACGACGGGATT
B24: UUCUCCA (DNA:RNA)
RNA: B1 RNA with A26U, A27C, G28U, C31A
DNA 1: CAATCTGAATTCCGGTCTCCC
DNA 2: TGGTGGCTACGACGGGATT
B25: GACUGGC (DNA:RNA)
RNA: B1 RNA with U25G, A27C, G28U, C29G, C30G
DNA 1: CAATCTGAATTCCGGTCTCCC
DNA 2: TGGTGGCTACGACGGGATT
B26: GACGGAG (DNA:RNA)
RNA: B1 RNA with U25G, A27C, C29G, C30A, C31G
DNA 1: CAATCTGAATTCCGGTCTCCC
DNA 2: TGGTGGCTACGACGGGATT
B27: GAAGUAA (DNA:RNA)
RNA: B1 RNA with U25G, C29U, C30A, C31A
DNA 1: CAATCTGAATTCCGGTCTCCC
DNA 2: TGGTGGCTACGACGGGATT
B28: CGCUUAU (DNA:RNA)
RNA: B5 RNA with U26G, U27C, A28U, U30A, G31U
DNA 1: CAATCTGAATTCCGGTCTCCC
DNA 2: TGGTGGCTACGACGGGATT
B29: CAGUACC (DNA:RNA)
RNA: B1 RNA with U25C, A27G, G28U, C29A
DNA 1: CAATCTGAATTCCGGTCTCCC
DNA 2: TGGTGGCTACGACGGGATT
B30: AUGGUUA (DNA:RNA)
RNA: B5 RNA with C25A, U27G, A28G, G31A
DNA 1: CAATCTGAATTCCGGTCTCCC
DNA 2: TGGTGGCTACGACGGGATT
B31: CGCCAUA (DNA:RNA)
RNA: B5 RNA with U26G, U27C, A28C, U29A, G31A
DNA 1: CAATCTGAATTCCGGTCTCCC
DNA 2: TGGTGGCTACGACGGGATT

The assay deals with T1, RBFOX1 RRM (Homo sapiens, UniProt Q9NWB1 109-208).
T1 sequence: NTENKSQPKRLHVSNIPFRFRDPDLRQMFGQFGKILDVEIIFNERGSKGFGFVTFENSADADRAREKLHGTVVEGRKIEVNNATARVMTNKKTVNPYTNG
The assay is described as follows: EMSA; HiTS-Eq, 1 nM pool, 10 min; buffer printed only for the single-RNA assays: 10 mM Tris pH 7.5, 150 mM NaCl, 3.4 mM EDTA, 0.001% NP-40, 30 C. Conditions: tags: His6 N-terminal (pET28a); label: 5' 32P. The method, boiled down:
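Purified wild-type or mutant RbFox RRM at increasing concentrations was equilibrated with 1 nM of 5′-radiolabelled RNA carrying 7 randomized nucleotides for 10 min in 50 µL. Unbound RNA was separated by 8% native PAGE and sequenced. Relative association constants came from read-count changes of each RNA species compared with the control reaction, normalised to the cognate motif.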
On the technique in general: A gel shift assay detects complexes by their altered migration in electrophoresis.
Take B1: the binding signal was 0.00492 KA relative to UGCAUGU. For B2 the value was 0.00721 KA relative to UGCAUGU.

On to B3, for which the binding signal is 0.0048 KA relative to UGCAUGU. For B4 the value was 0.00408 KA relative to UGCAUGU; for B5, 0.0165 KA relative to UGCAUGU.

For B6, the binding signal is 0.0235 KA relative to UGCAUGU.

B7: the binding signal was 0.00265 KA relative to UGCAUGU.

For B8, the binding signal was 0.00151 KA relative to UGCAUGU. Then B9, with 0.0242 KA relative to UGCAUGU; and B10, with 0.00287 KA relative to UGCAUGU; and B11, with 0.0136 KA relative to UGCAUGU. As for B12, the binding signal is 0.0186 KA relative to UGCAUGU. Then B13, with 0.00079 KA relative to UGCAUGU; and B14, with 0.00671 KA relative to UGCAUGU; and B15, with 0.00309 KA relative to UGCAUGU. For the molecule B16, the binding signal is 0.0315 KA relative to UGCAUGU. Take B17: the binding signal is 0.00797 KA relative to UGCAUGU. Then B18, with 0.00122 KA relative to UGCAUGU; and B19, with 0.00596 KA relative to UGCAUGU.

Take B20: the binding signal is 0.00886 KA relative to UGCAUGU. With B21, the binding signal was 0.00049 KA relative to UGCAUGU.

For the molecule B22, the binding signal is 0.000179 KA relative to UGCAUGU. For B23 the value was 0.00229 KA relative to UGCAUGU; for B24, 0.00424 KA relative to UGCAUGU; for B25, 0.0237 KA relative to UGCAUGU. Then B26, with 0.0118 KA relative to UGCAUGU. For B27 the value was 0.00635 KA relative to UGCAUGU. For the molecule B28, the binding signal was 0.00715 KA relative to UGCAUGU. For B29 the value was 0.00221 KA relative to UGCAUGU; for B30, 0.00772 KA relative to UGCAUGU; for B31, 0.00265 KA relative to UGCAUGU.
